The RNAGym collection of RNA variant scans (doi:10.1073/pnas.2313332121)
Variants at the floor of the assay are shown more often than the library holds them.

B1: TPR 5TU (parent)
chain: GGAUCUUCUCGAUCUAACAAAAAAGACAAAUCUGCCACAAAGCUUGAGAGCAUCUUCGGAUGCAGAGGCGGCAGCCUUCGGUGGCGCGAUAGCGCCAACGUUCUCAACUAUGACACGCAAAACGCGUGCUCCGUUGAAUGGAGUUUAUCAUG

Variants of: B1
Assay: polymerase ribozyme fitness, log enrichment relative to wild type (log ratio); higher = more active; in vitro selection for triplet polymerase activity
In short: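 Both subunits of a heterodimeric triplet polymerase ribozyme were given their own mutant library, built by PCR and transcribed. Each library was annealed with a biotinylated primer, the partner subunit and triplets, incubated frozen at −7 °C, and its extended constructs gel-excised, captured on streptavidin beads and amplified by RT-PCR, all in one round done in triplicate. Fitness is the logarithm of genotype enrichment relative to wild-type enrichment, with replicates averaged by inverse-variance weighting. That logarithm is base 2, and Illumina-sequenced genotypes needed ≥10 input reads and ≥1 read per output.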

Variant	polymerase ribozyme fitness (log ratio)
A3G C10A A24G A28C A49C C87A	≤ -4.2
U4C C85G C99U C125G	-3.5
U4A A22C U56A G124U U135C	-3.48
A3G C57G A73U G83A C93U C96A	≤ -4.2
C5A A60G	0.956
U4C C18G G46A G65C C85U A89G U109G A138U G141A	≤ -4.2
A3U G65A C85A	-3.12
C5A A20G C85U C93U A97U	-3.46
U4C C35A C69U G74A G94C A115C U134G	≤ -4.2
C5A A12G A23C G84A	-4.02
A3U C36A A40C G94A	≤ -4.2
A3U C87G A113C	-4.19
U4G C79A C93A	≤ -4.2
A3C U9A A30U G48A U53A C54U G67U C93G G126A U135G	≤ -4.2
U4G G25A U45G C87A C99A C103U C105G U139G G143A	-4.11
C5A A20U A21U A107G U145C C149U	≤ -4.2
U4A C5G C69U C79U C85U G94C G117A G128U	≤ -4.2
U4C G11U G84A C108A	≤ -4.2
A3G G46C C54A U146C	-3.68
U4G C54G A64U C95U U134G	≤ -4.2
U4C C32G G46A C79A C87A A89U C105U A120G	≤ -4.2
U4G A73U C87A C99U	≤ -4.2
U4G U53C G94A U130G	≤ -4.2
A3G C5U C8A A21C C69A G71C G94C C132U	≤ -4.2

Variant	polymerase ribozyme fitness (log ratio)
U4C A22U C32G C38G G65C G81A C118U C149U	≤ -4.2
A3G U33G U53A G58A C79U C85G U101G	≤ -4.2
A3G C8G U53A C54U C87G A89U G94U A97G A115G	≤ -4.2
A3U G59U U82A C93A A142C	≤ -4.2
U4C A20C C57U C87G G112U A137C	≤ -4.2
U4A U53A C93U A97U	≤ -4.2
A3U A40C U45A G62A G136C	≤ -4.2
U4G C10A U15C A37U U45A U55A G70U G81A A107C G117C	≤ -4.2
A3G C85A A89C C108G A115G C132U U139A	≤ -4.2
A3U C5A U15C A19G C57G C118G G136A G141C A142C	≤ -4.2
A3U U33G C57U C95A C105U A119C	≤ -4.2
C5A A28U U55A C57G C96U G141U	≤ -4.2
U4A C43G	≤ -4.2
C5A A16U U56G G58C G59U C93A C116G G124U	≤ -4.2
U4G C27A U31G A39C G50A A52C C85G G88C A110U A121C C125A G140A	≤ -4.2
U4C A16G C85A C99G U135A	≤ -4.2
C5A G81U C85G C99U U134A	-4.04
U4A G42U A47C C75G G88C U144G	≤ -4.2
U4G U15G A20G A39C C85G A107G	≤ -4.2
C5A G92A U104G A120U C123A U130G	≤ -4.2
U4G U9G G59C U82G C87G C96A	≤ -4.2
C5A A41G G58A A60C G84A A106U C131U U146A	-3.76
C5A A24G A64C G68A C76U C79U G83C U90A C95G A115U A138G	≤ -4.2
A3U U45G C69A G92U A115G	≤ -4.2

Variant	polymerase ribozyme fitness (log ratio)
A3U U53G G68U C85U C108U C118A G124A	≤ -4.2
C5A U6C A21C A23C G48U G59C A64U G67A A73G C79G G81C C95G G100C G112U U145A	≤ -4.2
A3U A47C C51U U55A C87A C116G C132G	≤ -4.2
U4A G11U G50U U61A C76U C85U C96A A115G	≤ -4.2
C5A G81A	0.566
A3G A16C A52G G68A A73U C85A	≤ -4.2
A3G U4A U53C G59U U61A G71C C85A	≤ -4.2
U4A G25C A30U C54U U55A G62C G68A C96A G143U	≤ -4.2
A3G C27U G86A	-3.94
U4G A16U A49C A97G	≤ -4.2
U4A U44A G92A A119U U148G	≤ -4.2
C5A G80C C96G C105U	≤ -4.2
U4G G65C C85G	≤ -4.2
U4C A19U A20U C43U A47C A66C C85U	≤ -4.2
A3U C14U A23G A29G A37U U53A C54A A91U C105G A113U	≤ -4.2
A3U U145C	-0.205
U4A G34U U61G G70A C99U A107C U139G	≤ -4.2
U4A C10U A17G A21C C43U G92A C105A G124C	≤ -4.2
A3U A20G A30G C57A A142C	≤ -4.2
A3C U33G A52C U53G C87U G143A	≤ -4.2
A3U A20G A30U U45G C54A G59A C85A C114A	≤ -4.2
U4A A17G C35A G59C U135A	≤ -4.2
C5A A19U G86C A147C	-3.38
A3U A17U A19G G68A	≤ -4.2

Variant	polymerase ribozyme fitness (log ratio)
U4C C10G A28G G34U G48C U55G G86C U148G	≤ -4.2
A3G G11A C27A A49C G59C G84C G88U	≤ -4.2
U4G G50A C75G G94U A142U A147U	≤ -4.2
U4G C8A U31A U55A C87U U101C G133C	≤ -4.2
U4A U31G A37U A47C G68A C96A U135A A150C	≤ -4.2
A3U A21U C27A U44A A89G G94A A98U	≤ -4.2
U4C A22G G86A	-1.64
A3G A113G C118G	-3.65
A3U A29C U61C	≤ -4.2
U4C A17G A19C A37G G62C G70U U77C	≤ -4.2
A3U A24G C32G	-4.15
U4G U7G A49U C75G C93U	≤ -4.2
U4C A19U A64C C76U G84U A120G U134A	≤ -4.2
U4G G59U U78G C96A G117C	≤ -4.2
U4A G50A C76U A91U C95U A97G C116A U130A	≤ -4.2
U4A C96A A98C A115U A142U G152C	≤ -4.2
U4G G11A G74A G88A U102G G143C U146G	≤ -4.2
U4C G71A G83U A89U C131U A137U	≤ -4.2
C5A C8G A19C G42C U45G C87G	≤ -4.2
C5A C14A C72U G88U C103U	≤ -4.2
C5A C54U C87U U148C	-2.76
C5A U7G C32U G80C C87G C149G	≤ -4.2
C5A A47U G84A G124U	-1.14
A3U C8A A12G A28U C54U C75G C76G C95U	≤ -4.2

Variant	polymerase ribozyme fitness (log ratio)
A3U C8G C10U U31A U56G A73G C76A C93A A119C G140A	≤ -4.2
A3C U44G U56A G84C	≤ -4.2
A3G A29G A39G G86U C99G	≤ -4.2
C5A A40G C87U	-2.81
A3G C8A C51U G83U A97U C105U U111G C131G C149U	≤ -4.2
U4C C54G A91C A98U	≤ -4.2
U4C C54G C87U C95G G143A U146G	≤ -4.2
C5A A52C G80C G83U	≤ -4.2
A3U G62U G94A	-1.08
U4C A24U G71A A91U A147C	≤ -4.2
A3U C93A	-2.19
A3G G50C C76A A115U C131G	≤ -4.2
A3G A39G U61A G68A C93U	≤ -4.2
A3U A20C G58C A73U G81A A147C	≤ -4.2
U4C U6A C14U A26U C54A C72G G94U G100C A106U	≤ -4.2
U4G A24G U44A U56G G94A A138C	≤ -4.2
U4C G48A	-1.42
U4C A22U A26U A40C A52U G67A U90A C99A A150U	≤ -4.2
U4G A47U G58C C69U G86A C105U	≤ -4.2
A3G G83A G86U C118U	-3.29
U4C C35A C75U G112U U144C U145C	≤ -4.2
U4G U53A C85U G133C	-2.45
U4G A89C C131A	-3.28
U4G U7G U13G C43A C54U U78G G94C	≤ -4.2

Variant	polymerase ribozyme fitness (log ratio)
C5A C69A G84A U104G C125U G126A A142C	≤ -4.2
C5A A23U A26C A28U C35U G83A G88U C95G U102G	≤ -4.2
U4A A40C G80A G88C A89G C93U C105U C116A	≤ -4.2
U4A U53A U82A A91U A115G U148G	≤ -4.2
U4A U9C C27G U55A G70C C85A U127G A142U	≤ -4.2
A3U C5G U13G G71U G88U A142G	≤ -4.2
U4A A29U C38U U44A U55A C57U C87G C95G	≤ -4.2
U4G C51A G92A C108U G126A	≤ -4.2
C5A A20U C85G C103G C123U G141C	≤ -4.2
A3U A17U A21G U53G G84U G88A U145G	≤ -4.2
C5A C87G A138G	≤ -4.2
U4C A12G A73G C93U G152A	-3.07
U4C A26U C43A U55A A73G C93U U134A U139G U146A U148A	≤ -4.2
A3G C75A G84U G86U U101A C108U U127G	≤ -4.2
A3U A16G G34U C57A C76A C87A	≤ -4.2
C5A G34A A41C U82C C87G A91C C93U	≤ -4.2
U4A A16U A17G A21U A24U G84A C114U A122U A142C	≤ -4.2
U4G A12G U78A A91U G124A A138G	≤ -4.2
U4A A24G G34C A39U C85G C105A A113U	≤ -4.2
C5A A20U G42C U82C A91G U102A C125U	≤ -4.2
U4C A16G A21G A41C A49U U56A G86A U135A A150G	≤ -4.2
C5A A29C G42A C79G C87U C103A U111C C114G G136U	≤ -4.2
U4G A40C A60U G70A C103A A107G	≤ -4.2
U4G U56A C76U U135C A138U	≤ -4.2

Variant	polymerase ribozyme fitness (log ratio)
C5A C87U C129A	-3.51
U4A C51G G84A A106U C118A	≤ -4.2
A3G C32G C36A C118G U146A	≤ -4.2
U4G C27U A52U C72U C76A C85A	≤ -4.2
U4C A22G C32U U55A G86C G136A U146C U151C	≤ -4.2
A3U C35A C118G G141C	≤ -4.2
A3G U45G U56A G80A C85A C116G U144C	≤ -4.2
A3U U7A U53A G83C C105G	≤ -4.2
A3G A22G A91G C96U U134C	≤ -4.2
C5A C35A U61A G71C C79G C93U G140A G143U	≤ -4.2
U4G G50C U55A G88A U144A	≤ -4.2
A3U G46A A113U	-3.1
U4C C85U U101G A147C	-0.704
A3G G11C C87A A91U A137G	≤ -4.2
C5A A16G C38U A89U U101A G143A U145A	≤ -4.2
U4C A16C U55A G74U C85U C87U C103U U146A A147C	≤ -4.2
U4G G50A C95A C116G G136C	≤ -4.2
A3U C10A C14U C85G A97U	≤ -4.2
C5A A20C G92U G112A U139A	≤ -4.2
U4G A16C U45A U56A C63G A66U C85G G92A C132A	≤ -4.2
A3U C8U C14G A19C U33A A52C G70A C79G C87G G152U	≤ -4.2
U4G U9C U90C C93G A113C	≤ -4.2
C5A A17G A28U C35U A60U C85G A138U	≤ -4.2
